Measured values published in the RNAGym collection of RNA variant scans (doi:10.1093/nar/gkz1192).
The source gives no read counts; variants with many changes may rest on few reads.

B1: CPEB3 Ribozyme (parent)
chain: UAACAGGGGGCCACAGCAGAAGCGUUCACGUCGCAGCCCCUGUCAGAUUCUGGUGAAUCUGCGAAUUCUGCUGUAUAUCUC

Variants of: B1
Assay: self-cleavage, relative activity (ratio to wild type); higher = more cleavage; in vitro, sequencing
Method in brief: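 CPEB3 self-cleaving ribozyme mutant libraries were made by rounds of error-prone PCR, barcoded, and transcribed in vitro with T7 RNA polymerase for 5 hours at 37°C. Cleavage occurred during transcription and a 15 min DNase I step before EDTA stop. RNAs were reverse transcribed with template switching and Illumina-sequenced, with DNA sequencing mapping barcodes to variants. Relative activity is the variant's cleaved/total read fraction divided by wild type's (minimum 5 reads), averaged across three batches.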
Work on A3C A5C U66A yielded a self-cleavage of 0.54. In the case of A3C A5G A15G U25A U51C U78C U80G, the self-cleavage is reported as 0.05. Variant A3C A5G A35U U51A has a self-cleavage of 0.6. Work on A3C A13U A28G yielded a self-cleavage of 0.45. Variant A3C A15C A35G A45U C59A has a self-cleavage of 0.32. For A3C A15U U31C U41C A56G, the self-cleavage was 0.39. For A3C A18C U26C, the self-cleavage was 0.25. With A3C A20G A35U A47U U51C U58C U74C the self-cleavage was 0.13. For A3C A21G C40A U43C U76C, the self-cleavage was 0.03. A3C A21U U26C U43A U58C gave a self-cleavage of 0.3. With A3C A28U U54A A56G U60C the self-cleavage was 0.44. Work on A3C A35U G53A yielded a self-cleavage of 1. In the case of A3C A64U U69A G73A, the self-cleavage is reported as 0.26. A3C C12U A35G gave a self-cleavage of 0.93. In the case of A3C C12U U41G U66C U78A, the self-cleavage is reported as 0.1. In the case of A3C C29U U67A, the self-cleavage is reported as 0.42. A3C C34U A35G U60G U74G gave a self-cleavage of 0.07. For A3C G6U G10A C23U C29A U41A, the self-cleavage was 0.06. Work on A3C G7A C12U U31A A35U yielded a self-cleavage of 0.06. For A3C G8A U67G U80C, the self-cleavage was 0.04. Variant A3C G9A C38G A64U U78C has a self-cleavage of 0.07. With A3C G9C A35U U41C A57G G61U the self-cleavage was 0.09. With A3C G52A A65G the self-cleavage was 1.02. In the case of A3C U26G U41G A56G A65U U78C, the self-cleavage is reported as 0.04. A3C U41A U49A G53A U78C showed a self-cleavage of 0.45. Work on A3C U41C U54C A57G U80A yielded a self-cleavage of 0.9. A3C U43C U60A showed a self-cleavage of 0.56. For A3C U43C U72C, the self-cleavage was 1.05. With A3C U51C U78C the self-cleavage was 0.94. A3C U60C U72A U78C gave a self-cleavage of 0.52. A3G A5G A13G U66A gave a self-cleavage of 0.65. With A3G A5G A15U U25C the self-cleavage was 0.69. Variant A3G A5G A15U U25C U31A U74A has a self-cleavage of 0.61. Variant A3G A5G A18G A28G U49C U72G has a self-cleavage of 0.39. With A3G A5G A18G U58C U69C the self-cleavage was 0.13. A3G A5G A20G A45G U72C showed a self-cleavage of 1.03. A3G A5G A21G U25A U54A U58C U66C gave a self-cleavage of 0.08. Variant A3G A5G A28G C62A U66C has a self-cleavage of 0.37. With A3G A5G A35G the self-cleavage was 1.25. In the case of A3G A5G A35G U43C, the self-cleavage is reported as 1.02. Variant A3G A5G A45G U49A C79U has a self-cleavage of 0.49. Variant A3G A5G A45G U78C has a self-cleavage of 0.69. A3G A5G C23U U31A U69C U78C showed a self-cleavage of 0.18. For A3G A5G G8C U54C U58C, the self-cleavage was 0.5. For A3G A5G G16A C40A U48C A56U, the self-cleavage was 0.17. For A3G A5G U26A U31A U72C U78C, the self-cleavage was 0.22. A3G A5G U43C U60C C62G gave a self-cleavage of 0.1. Work on A3G A5G U51C U60C U69A U72C yielded a self-cleavage of 0.22. For A3G A5G U72C A75G U78A, the self-cleavage was 1.14. A3G A5U A13U A35C U72C gave a self-cleavage of 1.09. Variant A3G A5U A18G C29A has a self-cleavage of 0.15. For A3G A5U A18G U26A U48A, the self-cleavage was 0.54. For A3G A5U A21C U48C U80C, the self-cleavage was 0.16. A3G A5U A21G G33C G53A showed a self-cleavage of 0.15. Variant A3G A5U A28G U49C has a self-cleavage of 0.6. A3G A5U A28U A35U U41A U54A showed a self-cleavage of 0.3. Work on A3G A5U A35U U41A A45U U66A yielded a self-cleavage of 0.13. For A3G A5U A45C U48C U58C A64G U69C, the self-cleavage was 0.42. A3G A5U A56G A57G U67A C81A gave a self-cleavage of 0.2. For A3G A5U G9A A20G A28G, the self-cleavage was 0.5. In the case of A3G A5U G9A A28G U43C, the self-cleavage is reported as 0.11. Work on A3G A5U U58C C59U U80A yielded a self-cleavage of 0.21. A3G A13C U54A U72C U80A showed a self-cleavage of 0.99. For A3G A13C U67C, the self-cleavage was 0.28. With A3G A13G A18U A35G U58C the self-cleavage was 0.08. In the case of A3G A13G A20G U49C, the self-cleavage is reported as 0.53. Variant A3G A13G A28U U78C has a self-cleavage of 0.43. With A3G A13G A47G A64G A77U the self-cleavage was 0.95. Variant A3G A13G C34U A35G A75G has a self-cleavage of 0.73. Variant A3G A13G C62U U66C U80C has a self-cleavage of 0.36. Work on A3G A13G G16A U41C A64G yielded a self-cleavage of 0.1. With A3G A13G G30C the self-cleavage was 0.1. With A3G A13G G42A G61C the self-cleavage was 0.1. With A3G A13G U26A U41C U60C A65G the self-cleavage was 0.12. A3G A13G U26C gave a self-cleavage of 0.31. A3G A13G U31A C40A G52A U74C A75G gave a self-cleavage of 0.07. A3G A13G U31C C40A showed a self-cleavage of 0.84. For A3G A13G U58C U60A U66C, the self-cleavage was 0.27. With A3G A13U A15G the self-cleavage was 0.72. With A3G A13U A15G U31C the self-cleavage was 0.17. In the case of A3G A13U A15U U41C A47G U69A A77U, the self-cleavage is reported as 0.24. Variant A3G A13U A18U A64U has a self-cleavage of 0.26. Variant A3G A13U A18U U25A U41C C44U has a self-cleavage of 0.09. Work on A3G A13U A20G A35U U48C A57U U76A yielded a self-cleavage of 0.29. For A3G A13U A21G U25A U69A, the self-cleavage was 0.11. A3G A13U A35U C44U U69C showed a self-cleavage of 0.15. In the case of A3G A13U A47U C50A, the self-cleavage is reported as 0.37. Work on A3G A13U C27U C62U yielded a self-cleavage of 0.2. With A3G A13U C29G G53A U80G the self-cleavage was 0.18. For A3G A13U C44U U54A, the self-cleavage was 0.79. With A3G A13U U43A U67C the self-cleavage was 0.39. With A3G A13U U43A U72A A77G the self-cleavage was 1.05. Work on A3G A13U U43C A65G U72C U78A yielded a self-cleavage of 0.52. With A3G A13U U51A U58C U72C the self-cleavage was 0.59. A3G A13U U54A showed a self-cleavage of 1.08. Variant A3G A13U U58C U67C U78C U80C has a self-cleavage of 0.19. In the case of A3G A13U U60C U72C U76C, the self-cleavage is reported as 0.48. A3G A15C A20G A35U U48C U67C U74C gave a self-cleavage of 0.37. Variant A3G A15C A64G has a self-cleavage of 0.65. A3G A15C G24U U41A gave a self-cleavage of 0.29. A3G A15C U49C U72C showed a self-cleavage of 0.43. A3G A15G A18G A57G U76A gave a self-cleavage of 0.29. A3G A15G A28G A56G G63A showed a self-cleavage of 0.35. In the case of A3G A15G A47G C68A, the self-cleavage is reported as 0.27. For A3G A15G A56G, the self-cleavage was 0.9. Variant A3G A15G C32U A56G has a self-cleavage of 0.59. Work on A3G A15G G33A yielded a self-cleavage of 0.47. Work on A3G A15G G61A A65G U78C yielded a self-cleavage of 0.27. Variant A3G A15G G61C U67C U80A has a self-cleavage of 0.48. A3G A15G U25C A28G U60C U72C gave a self-cleavage of 0.41. In the case of A3G A15G U26A A45C U72C U74A, the self-cleavage is reported as 0.88. A3G A15G U43C A47G U69C gave a self-cleavage of 0.39. Work on A3G A15U A21G U26C U43C U76C C81U yielded a self-cleavage of 0.05. A3G A15U A35G U54A gave a self-cleavage of 1.27. A3G A15U A64G A65G gave a self-cleavage of 0.02. A3G A15U U26A U31A U60G U80C showed a self-cleavage of 0.1. Variant A3G A18G A20G U26A U48C U80C has a self-cleavage of 0.06. Work on A3G A18G A21G U72A yielded a self-cleavage of 0.23. A3G A18G A28C A35U U48A showed a self-cleavage of 0.06. For A3G A18G A45U, the self-cleavage was 0.36. A3G A18G A47G U69C showed a self-cleavage of 1.12. In the case of A3G A18G A57G, the self-cleavage is reported as 0.63. Work on A3G A18G C23A yielded a self-cleavage of 0.1. A3G A18G C29A G33A A65G U78C showed a self-cleavage of 0.17. A3G A18G G19U A35U C62U A64G U78G gave a self-cleavage of 0.12. Work on A3G A18G G33A U51C A56G U69C yielded a self-cleavage of 0.13. A3G A18G G42A U78C showed a self-cleavage of 0.14. For A3G A18G G73A U80A, the self-cleavage was 1.12. A3G A18G U26A A45U U66C U69C showed a self-cleavage of 0.12. Variant A3G A18G U41C has a self-cleavage of 0.71. In the case of A3G A18G U41C U49C A57G U78C, the self-cleavage is reported as 0.2. A3G A18G U48C gave a self-cleavage of 0.31. For A3G A18G U51C U72A, the self-cleavage was 0.48. Work on A3G A18G U54C U78C yielded a self-cleavage of 0.51. Variant A3G A18G U76G C81U has a self-cleavage of 0.96. With A3G A18U A21U A28G A57U U69A G70U the self-cleavage was 0.06. Work on A3G A18U A56U U67C yielded a self-cleavage of 0.18. In the case of A3G A18U C29A U60C U80C, the self-cleavage is reported as 0.41. Variant A3G A18U G36A U43C U49C U76A has a self-cleavage of 0.13. With A3G A18U G70C the self-cleavage was 0.51. With A3G A18U U31C U41C the self-cleavage was 0.26. Variant A3G A18U U49C U78C has a self-cleavage of 0.25. In the case of A3G A20G A28G A35U U72G U76A, the self-cleavage is reported as 0.14. In the case of A3G A20G A28G C40A A45U, the self-cleavage is reported as 0.09. Variant A3G A20G A28U A47U U51C U54C has a self-cleavage of 0.15. A3G A20G A35G U54A U60C A75G C79U gave a self-cleavage of 0.8. In the case of A3G A20G A47G U69A, the self-cleavage is reported as 0.33. Variant A3G A20G C32G C37U U43A U54C A64G has a self-cleavage of 0.07. For A3G A20G U26C C68U, the self-cleavage was 0.46. With A3G A20G U31C C32U U58A A77G the self-cleavage was 0.29. For A3G A20G U31C U58A U72C, the self-cleavage was 0.37. With A3G A20G U41C U43C U69A the self-cleavage was 0.28. Work on A3G A20G U43A U51C G55U U60C A64G yielded a self-cleavage of 0.13. For A3G A20G U48C, the self-cleavage was 0.56. A3G A20G U51C U54C U76C gave a self-cleavage of 0.76. A3G A20U A35U C50A U72C showed a self-cleavage of 0.24. With A3G A20U U25C U43C U58C the self-cleavage was 0.3. A3G A20U U54G U80A showed a self-cleavage of 0.51. For A3G A21C A45G U54C U72A, the self-cleavage was 0.41. In the case of A3G A21C U51G, the self-cleavage is reported as 0.16. For A3G A21G A28U A35G U58C A64U, the self-cleavage was 0.32. A3G A21G A45G gave a self-cleavage of 0.63. A3G A21G A57G A77U gave a self-cleavage of 0.27. With A3G A21G C44U A56G U69G the self-cleavage was 0.24. A3G A21G G33A U43C A64U U80C gave a self-cleavage of 0.08. Variant A3G A21G G46A has a self-cleavage of 0.33. Work on A3G A21G U26C U49A A57G yielded a self-cleavage of 0.
